# According to PubChem BioAssay AID1948 (National Center for Advancing Translational Sciences (NCATS), 2009):
# About 20 (0.02%) of roughly 110,000 compounds were called active. Inconclusive results, whose numbers are uncertain, are shown with a selection of clear calls. Calls follow the shape of the dose curve; as a rule, active = well fitted activation curve with a large enough effect; inconclusive = small, poorly fitted or top-dose-only effect; inactive = no such curve, though single readings can be large or run the other way. Potencies beside an inconclusive call are fits to weak or partial responses and may not hold up.
# Test: qHTS Assay for Compounds that Induce Erasure of Genomic Imprints;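 as to activity change, positive = activation: 0% = negative control wells on the plate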
# Settings: mouse ES Peg3-LacZ reporter, beta-gal luminescence, 40 h; activity change, positive = activation: at 10.9 µM (top of the series) unless noted
# Excerpt: qHTS Assay for Compounds that Induce Erasure of Genomic Imprints NIH Chemical Genomics Center [NCGC] NIH Molecular Libraries Screening Centers Network [MLSCN] Assay Submitter (PI): JEFFRIES, SEAN, NCGC, University of Cambridge NCGC Peg3 Imprinting Assay Overview Genomic imprinting is the epigenetic process whereby genes are expressed in a parent of origin fashion. […] Unlike some forms of epigenetic silencing that can be overcome by overexpression of transcription factors, genomic imprinting stably represses the expression of one allele despite potentially high levels of expression from the other allele. […] During mouse embryonic day 11.5 imprints are erased in PGCs so that sex specific imprints can be reestablished during gametogenesis. Embryonic germ (EG) cells can be derived from developing PGCs at embryonic day 11.5 and these cells often lack genomic imprints. […] Embryonic stem (ES) cells are a cell type similar to EG cells in phenotype and transcriptional profile, yet ES cells maintain genomic imprints. This similarity between ES and EG cells prompted us to use ES cells to look for factors which could induce imprint erasure. To investigate the stability of genomic imprinting, ES cells were derived from mice with an insertion of a LacZ-Neomycin reporter construct in the Peg3 locus. Peg3 is an imprinted locus where gene expression is restricted to the paternal allele. […] Using LacZ expression we are able to monitor the state of the Peg3 imprint. In order to dissect the mechanisms involved in imprint erasure using a forward chemical genetics approach we developed a cell based phenotype assay using an endogenous silence imprinted locus. This assay utilizes maternally inherited Peg3LacZ-Neo ES cells by monitoring the LacZ expression from the normally silent Peg3 allele. To facilitate screening, high-density feeder-free ES cell culture has been optimized so that ES cells can be grown in 1536 for over four days without feeding or washes. The assay uses a luminescence based read out for LacZ activity and is a homogenous assay optimal for HTS.
# NCGC Peg3 Imprinting Assay Protocol Summary ES cell lines were derived from blastocysts taken from Peg3LacZ-Neo x129 matings. Lines were sexed and genotyped for the Peg3LacZ-Neo allele. Female cells carrying the reporter allele were used in this study. Cells were derived on a layer of mouse embryonic fibroblasts and passaged multiple times before switching to feeder free culture. Cells were maintained feeder free on gelatin coated dishes in DMEM/F12 media supplemented with 15% FBS, 2mM L-glutamine, 100 units/ml penicillin, 100ug/ml streptomycin, 0.1mM MEM nonessential amino acids, 1mM sodium pyruvate, 0.1% sodium bicarbonate, 0.1mM 2-Mercaptoethanol, and 400 units/ml leukemia inhibitory factor (LIF) at 37C with 5% CO2. The assay was performed in 1536-well format. A single luminescence read was taken at the end of the assay and the data was normalized by plate to internal negative controls. Maximum efficacy and AC50 values were calculated from dose-response data using the standard Hill equation. 1536 well plates were filled with 0.5ul of 0.1% gelatin per well, spun down and incubated for at least 30 min at 37C. The ES cells were then trypsini Peg3 1536-well assay protocol: (1)Plate 0.5ul/well 0.1% gelatin in white tissue culture treated 1536-well plates, spin and incubate at 37C for at least 30 min. (2)Add 5ul/well (300 cells) of ES cell suspension from freshly trypsinized cells and incubate at 37C, 5% CO2 for 40 hours. (3)Add 5ul/well of freshly prepared BetaGlo solution and incubate at room temperature for 5 minutes. (4)Read luminescence on the ViewLux plate reader. Keywords Genomic Imprinting, Germ Cells, Embryonic Stem Cell, DNA Methylation, Peg3, qHTS, NIH roadmap, NCGC
# Potency is read from the fitted curve at half-maximal effect; tags tell the direction and shape of the fitted curve.
Structure (SMILES),"activity change, positive = activation",Potency
COC(=O)c1cc(C)nc2c1c(=O)nc(SCc1ccccc1C)n2C1CC1,inactive: -8.4%,–
CCCCCCNC(=O)c1c[nH]c2ccc(S(=O)(=O)N(C)c3ccc(C(C)C)cc3)cc2c1=O,inconclusive: 37.6% [activator],–
O=C(CSc1nnc(NC2CCCCC2)s1)NC1CCS(=O)(=O)C1 (stereo unspecified),–,"inconclusive: 12.6 µM [activator, single point]"
COCCn1c(SCC(=O)NC(=O)NCc2ccccc2)nc2ccccc21,–,"inconclusive: 5.01 µM [activator, single point]"
C[C@](O)(c1ccccc1)c1nccc2ccccc12,inactive: 0.586%,–
CNc1nc(-c2ccc(C(=O)N(C)C)cc2)nc2ccccc12,–,"inconclusive: 3.16 µM [activator, full curve]"
Cc1cc(SCC#N)n2nc(C)c(-c3ccccc3)c2n1,inactive: -9.1% [at 60.7 µM],–
COc1ccc(CNC(=O)CN2C(=O)COc3ccccc32)c(OC)c1,inconclusive: 39.8% [activator],–
Cc1cc(C)n(-c2ccn(Cc3ccc(Cl)cc3Cl)c(=O)n2)n1,inactive: -15.2% [at 60.7 µM],–
Cc1c(CN(C)C)c2c(n1C)C(=O)c1ccc(Br)cc1-2,inactive: -7.64% [at 60.7 µM],–
COc1ccc(Cl)cc1NC(=O)Cn1c(=O)n(-c2ccc(C)cc2)c(=O)c2ccc(C(=O)NCc3ccccc3Cl)cc21,inconclusive: 31.4% [activator],–
CCNc1ncc2nc(-c3ccc(F)cc3)c(=O)n(-c3ccccc3)c2n1,–,"inconclusive: 0.0631 µM [activator, full curve]"
Cc1ccc(CN2C(=O)CCC2C(=O)NCCCN2CCOCC2)cc1 (stereo unspecified),–,"inconclusive: 3.16 µM [activator, single point]"
NNC(=O)c1ccc(OCc2nc3ccccc3[nH]2)cc1,inactive: -2.84%,–
Cc1ccc(N2CC(NC(=O)c3cccs3)CC2=O)cc1 (stereo unspecified),inconclusive: 137% [activator],–
COc1ccc(CCNc2oc(Cc3cccc4ccccc34)nc2C#N)cc1OC,inactive: -14.9% [at 60.7 µM],–
Cc1ccccc1CN1C(=O)c2ccccc2Sc2ccc(C(=O)NCCc3ccccc3)cc21,inconclusive: 36.8% [activator],–
CCOC(=O)c1c(C)[nH]c(C)c1S(=O)(=O)N1CCC(C(=O)N2CCN(c3ccc(F)cc3)CC2)CC1,inconclusive: 47.2% [activator],–

Structure (SMILES),"activity change, positive = activation",Potency
Fc1ccc(Nc2ccnc(-c3ccc4c(c3)OCO4)n2)cc1,–,"inconclusive: 3.16 µM [activator, single point]"
O=C(O)c1cc(NC(=O)C2CCCO2)cc(NC(=O)C2CCCO2)c1 (stereo unspecified),–,"inconclusive: 3.98 µM [activator, single point]"
CCCCOc1ccccc1C1CC(=O)Nc2cc(C)c(C)cc21 (stereo unspecified),inactive: -13.9%,–
COC(=O)CCN(c1ccccc1)C(CNS(=O)(=O)c1ccccc1)c1ccccc1 (stereo unspecified),inactive: -6.29%,–
CCOC(=O)c1c(-c2cccs2)csc1NC(=O)c1ccco1,inactive: -1.26% [at 60.7 µM],–
CC1=C(C(=O)Nc2ccccc2Cl)C(c2cccs2)n2ncnc2N1 (stereo unspecified),inactive: -9.9%,–
CSc1nc2ccc(NS(=O)(=O)c3ccc4c(c3)OCCO4)cc2s1,–,"inconclusive: 5.01 µM [activator, full curve, poor fit]"
Cc1ccc(NC(=O)C2CCCN(c3nnc(C)c4c(C)n(-c5ccccc5)nc34)C2)cc1Cl (stereo unspecified),inconclusive: 39.2% [activator],–
CCC(=O)N1CCc2cc(S(=O)(=O)CCC(=O)NCc3ccc(F)cc3)ccc21,inconclusive: 35.3% [activator],–
CCc1nc2cc(C)nn2c2nc3ccccc3n12,inactive: -9.27% [at 60.7 µM],–
Cc1cc2nc3c(c(=O)n2[nH]1)CCCC3,inconclusive: 30.4% [activator] [at 60.7 µM],–
Cc1ccc(CCNC(=O)c2cc3cc4cc(C)ccc4nc3s2)cc1,inconclusive: 74.3% [activator],–
COc1cc(C2=NOC(C(=O)N3CCN(c4ccc(F)cc4)CC3)C2)cc(OC)c1OC (stereo unspecified),inactive: -17.1% [at 60.7 µM],–
COc1cccc(C(=O)Nc2cc(-c3ccccc3)nn2-c2ccccc2)c1,inconclusive: 39.7% [activator],–
CCCN(CCC)C(=O)c1c[nH]c2ccc(S(=O)(=O)Nc3cc(C)cc(C)c3)cc2c1=O,inconclusive: 106% [activator],–
O=C(NCCN1CCOCC1)c1cc(-c2ccccc2)on1,–,"inconclusive: 5.01 µM [activator, single point]"
COc1cc(OC)c(NC(=O)c2cc3c(s2)-c2ccc(Cl)cc2SC3)cc1Cl,inconclusive: 96.8% [activator],–
COc1ccccc1CNC(=O)CCCn1c(=O)c2ccccc2n(CC(=O)Nc2ccc(C)cc2Cl)c1=O,inconclusive: 42.4% [activator],–
